According to the supplement of paper PMC8728848:
This is one part of the list.

Tests used:
Assay in all cases: glycan array binding signal (z-score within array); higher = stronger binding
Conditions in all cases: glycan notation: IUPAC condensed, linker removed
[1] = target: Gal(b1-2)Gal
In short: (§1)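 Columns mapping to the same glycan were averaged after glycan names were converted to IUPAC-condensed notation. The data come from 3228 arrays in the Consortium for Functional Glycomics database, limited to those with an available protein sequence. Binding is reported as a within-array Z-score averaged across arrays of one protein sequence and across linkers.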

[2] = target: Gal(b1-3)Gal
In short: as §1

[3] = target: Gal(b1-3)Gal(b1-4)GlcNAc
In short: as §1

[4] = target: Gal(b1-3)GalNAc
In short: as §1

[5] = target: Gal(b1-3)GalNAc(a1-3)[Fuc(a1-2)]Gal(b1-4)Glc
In short: as §1

[6] = target: Gal(b1-3)GalNAc(a1-3)[Fuc(a1-2)]Gal(b1-4)GlcNAc
In short: as §1

[7] = target: Gal(b1-3)GalNAc(b1-3)Gal
In short: as §1

[8] = target: Gal(b1-3)GalNAc(b1-3)Gal(a1-4)Gal(b1-4)Glc
In short: as §1

[9] = target: Gal(b1-3)GalNAc(b1-4)Gal(b1-4)Glc
In short: as §1

[10] = target: Gal(b1-3)GalNAc(b1-4)[Neu5Ac(a2-3)]Gal(b1-4)Glc
In short: as §1

[11] = target: Gal(b1-3)GlcNAc
In short: as §1

[12] = target: Gal(b1-3)GlcNAc(a1-3)Gal(b1-4)GlcNAc
In short: as §1

[13] = target: Gal(b1-3)GlcNAc(a1-6)Gal(b1-4)GlcNAc
In short: as §1

[14] = target: Gal(b1-3)GlcNAc(b1-2)Man
In short: as §1

[15] = target: Gal(b1-3)GlcNAc(b1-2)Man(a1-3)[Gal(b1-3)GlcNAc(b1-2)Man(a1-6)]Man(b1-4)GlcNAc(b1-4)GlcNAc
In short: as §1

[16] = target: Gal(b1-3)GlcNAc(b1-2)Man(a1-3)[Gal(b1-3)GlcNAc(b1-2)Man(a1-6)]Man(b1-4)GlcNAc(b1-4)[Fuc(a1-6)]GlcNAc
In short: as §1

[17] = target: Gal(b1-3)GlcNAc(b1-2)Man(a1-3)[GlcNAc(b1-4)][Gal(b1-3)GlcNAc(b1-2)Man(a1-6)]Man(b1-4)GlcNAc(b1-4)GlcNAc
In short: as §1

[18] = target: Gal(b1-3)GlcNAc(b1-2)[Gal(b1-3)GlcNAc(b1-6)]Man(a1-6)[Gal(b1-3)GlcNAc(b1-2)Man(a1-3)]Man(b1-4)GlcNAc(b1-4)GlcNAc
In short: as §1

[19] = target: Gal(b1-3)GlcNAc(b1-3)Gal(b1-3)GlcNAc
In short: as §1

[20] = target: Gal(b1-3)GlcNAc(b1-3)Gal(b1-4)Glc
In short: as §1

[21] = target: Gal(b1-3)GlcNAc(b1-3)Gal(b1-4)GlcNAc
In short: as §1

[22] = target: Gal(b1-3)GlcNAc(b1-3)Gal(b1-4)GlcNAc(b1-2)Man(a1-3)[Gal(b1-3)GlcNAc(b1-3)Gal(b1-4)GlcNAc(b1-2)Man(a1-6)]Man(b1-4)GlcNAc(b1-4)GlcNAc
In short: as §1

[23] = target: Gal(b1-3)GlcNAc(b1-3)Gal(b1-4)GlcNAc(b1-2)[Gal(b1-3)GlcNAc(b1-3)Gal(b1-4)GlcNAc(b1-6)]Man(a1-6)[Gal(b1-3)GlcNAc(b1-3)Gal(b1-4)GlcNAc(b1-2)Man(a1-3)]Man(b1-4)GlcNAc(b1-4)[Fuc(a1-6)]GlcNAc
In short: as §1

[24] = target: Gal(b1-3)GlcNAc(b1-3)Gal(b1-4)GlcNAc(b1-3)Gal(b1-4)GlcNAc(b1-2)[Gal(b1-3)GlcNAc(b1-3)Gal(b1-4)GlcNAc(b1-3)Gal(b1-4)GlcNAc(b1-6)]Man(a1-6)[Gal(b1-3)GlcNAc(b1-3)Gal(b1-4)GlcNAc(b1-3)Gal(b1-4)GlcNAc(b1-2)Man(a1-3)]Man(b1-4)GlcNAc(b1-4)[Fuc(a1-6)]GlcNAc
In short: as §1

[25] = target: Gal(b1-3)GlcNAc(b1-3)Gal(b1-4)GlcNAc(b1-6)[Gal(b1-3)GlcNAc(b1-3)]Gal(b1-4)Glc
In short: as §1

[26] = target: Gal(b1-3)GlcNAc(b1-3)Gal(b1-4)[Fuc(a1-3)]GlcNAc
In short: as §1

[27] = target: Gal(b1-3)GlcNAc(b1-3)Gal(b1-4)[Fuc(a1-3)]GlcNAc(b1-6)[Gal(b1-3)GlcNAc(b1-3)]Gal(b1-4)Glc
In short: as §1

[28] = target: Gal(b1-3)GlcNAc(b1-3)GalNAc
In short: as §1

[29] = target: Gal(b1-3)GlcNAc(b1-6)Gal(b1-4)GlcNAc
In short: as §1

[30] = target: Gal(b1-3)GlcNAc(b1-6)GalNAc
In short: as §1

[31] = target: Gal(b1-3)GlcNAc(b1-6)[Gal(b1-3)]GalNAc
In short: as §1

[32] = target: Gal(b1-3)GlcNAc6S
In short: as §1

[33] = target: Gal(b1-3)[Fuc(a1-4)]GlcNAc
In short: as §1

[34] = target: Gal(b1-3)[Fuc(a1-4)]GlcNAc(b1-2)Man
In short: as §1

[35] = target: Gal(b1-3)[Fuc(a1-4)]GlcNAc(b1-2)Man(a1-3)[Gal(b1-3)[Fuc(a1-4)]GlcNAc(b1-2)Man(a1-6)]Man(b1-4)GlcNAc(b1-4)[Fuc(a1-6)]GlcNAc
In short: as §1

[36] = target: Gal(b1-3)[Fuc(a1-4)]GlcNAc(b1-3)Gal(b1-3)[Fuc(a1-4)]GlcNAc
In short: as §1

[37] = target: Gal(b1-3)[Fuc(a1-4)]GlcNAc(b1-3)Gal(b1-4)[Fuc(a1-3)]GlcNAc
In short: as §1

[38] = target: Gal(b1-3)[Fuc(a1-4)]GlcNAc(b1-6)GalNAc
In short: as §1

[39] = target: Gal(b1-3)[GlcNAc(b1-6)]GalNAc
In short: as §1

[40] = target: Gal(b1-3)[Neu5Ac(a2-6)]GalNAc
In short: as §1

[41] = target: Gal(b1-3)[Neu5Ac(a2-6)]GlcNAc(b1-4)Gal(b1-4)Glc
In short: as §1

[42] = target: Gal(b1-3)[Neu5Ac(b2-6)]GalNAc
In short: as §1

[43] = target: Gal(b1-4)Gal
In short: as §1

[44] = target: Gal(b1-4)GalNAc(a1-3)[Fuc(a1-2)]Gal(b1-4)GlcNAc
In short: as §1

[45] = target: Gal(b1-4)GalNAc(b1-3)[Fuc(a1-2)]Gal(b1-4)GlcNAc
In short: as §1

B1: PLU (Photorhabdus luminiscence) (protein)
chain: HHHHHHENLYFQSSIVFASIDPRSNPLQTSSQNYVDIPGLKLDVSKYSNSPCLTALITLNIPTPYASGNNFPGGNFAIVTDQGEQLAYGGFTYSSKIPENSGRMPFTLVARYSLASNVSTIKAQWSNIRGSTVHIDSYASISAVIQCNQLV
- glycan array binding signal (z-score) [1]: -0.267
- glycan array binding signal (z-score) [2]: -0.312
- glycan array binding signal (z-score) [3]: -0.36
- glycan array binding signal (z-score) [4]: -0.286
- glycan array binding signal (z-score) [5]: -0.291
- glycan array binding signal (z-score) [6]: -0.263
- glycan array binding signal (z-score) [7]: -0.345
- glycan array binding signal (z-score) [8]: -0.112
- glycan array binding signal (z-score) [9]: -0.265
- glycan array binding signal (z-score) [10]: -0.29
- glycan array binding signal (z-score) [11]: -0.268
- glycan array binding signal (z-score) [12]: -0.293
- glycan array binding signal (z-score) [13]: -0.297
- glycan array binding signal (z-score) [14]: -0.26
- glycan array binding signal (z-score) [15]: -0.194
- glycan array binding signal (z-score) [16]: 0.019
- glycan array binding signal (z-score) [17]: -0.165
- glycan array binding signal (z-score) [18]: -0.274
- glycan array binding signal (z-score) [19]: -0.317
- glycan array binding signal (z-score) [20]: -0.267
- glycan array binding signal (z-score) [21]: -0.269
- glycan array binding signal (z-score) [22]: -0.108
- glycan array binding signal (z-score) [23]: -0.286
- glycan array binding signal (z-score) [24]: -0.083
- glycan array binding signal (z-score) [25]: -0.246
- glycan array binding signal (z-score) [26]: -0.214
- glycan array binding signal (z-score) [27]: -0.312
- glycan array binding signal (z-score) [28]: -0.311
- glycan array binding signal (z-score) [29]: -0.216
- glycan array binding signal (z-score) [30]: -0.235
- glycan array binding signal (z-score) [31]: -0.254
- glycan array binding signal (z-score) [32]: -0.213
- glycan array binding signal (z-score) [33]: -0.29
- glycan array binding signal (z-score) [34]: -0.209
- glycan array binding signal (z-score) [35]: -0.285
- glycan array binding signal (z-score) [36]: -0.323
- glycan array binding signal (z-score) [37]: -0.128
- glycan array binding signal (z-score) [38]: -0.185
- glycan array binding signal (z-score) [39]: -0.284
- glycan array binding signal (z-score) [40]: -0.319
- glycan array binding signal (z-score) [41]: -0.229
- glycan array binding signal (z-score) [42]: -0.298
- glycan array binding signal (z-score) [43]: -0.25
- glycan array binding signal (z-score) [44]: -0.299
- glycan array binding signal (z-score) [45]: -0.357
